Relative growth data for 40 compounds are collected here from the supplement of paper PMC9446081.

The campaign covered roughly 39,000 compounds. About 220 (0.56%) showed activity. The list shows a part of the results.
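Further: static incubation at 37 °C against the wild-type strain, values averaged over two biological replicates.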

For this experiment, the system named is Escherichia coli K-12 BW25113. Briefly: relative growth (OD600 normalised to plate interquartile mean) (fraction); higher = less growth inhibition, active = 0.2 or less. The conditions noted are these: 50 µM; LB; incubation time: overnight (16-24 h).
For the compound `Nc1ncn(C(=O)c2ccccc2)n1`, the relative growth is inactive: 0.997.
In the case of `C[C@@H]1CN([C@H](C)CO)C(=O)Cc2cc(NS(=O)(=O)c3ccc(Cl)cc3)ccc2O[C@H]1CN(C)Cc1ccc(C(=O)Nc2ccccc2N)cc1`, the relative growth was inactive: 1.01.
As for `CCC(=O)N1C[C@]2(C1)CN([C@@H](CO)c1c2c2ccc(cc2n1C)OC)C(=O)CN1CCOCC1`, the figure is inactive: 1; as for `COc1ccc2c3c(n(c2c1)C)[C@@H](CO)N(C[C@]13CCN(CC1)C(=O)C1CCOCC1)C(=O)C1CCOCC1`, inactive: 1.01; as for `Nc1ccc(S(=O)(=O)c2ccc(N)cc2)cc1`, inactive: 1.27.
As for `CN(C)C(=O)C[C@@H]1CC[C@@H]2[C@H](COC[C@@H](O)CN2S(=O)(=O)c2ccccc2)O1`, the figure is inactive: 1.02; as for `COc1ccc(-c2cc(=O)c3c(O)c(OC)c(O[C@H]4O[C@H](CO[C@@H]5O[C@@H](C)[C@H](O)[C@@H](O)[C@H]5O)[C@@H](O)[C@H](O)[C@H]4O)cc3o2)cc1`, inactive: 1.02.
On to `C[C@H](CO)N1C[C@H](C)[C@H](CN(C)Cc2ccncc2)Oc2c(NC(=O)c3ccncc3)cccc2C1=O`, for which the relative growth is inactive: 0.954.
Take `COc1ccc(NS(=O)(=O)c2ccc(N)cc2)nn1`: the relative growth is inactive: 0.953.
For `Nc1ccc(C(=O)NCC(=O)O)cc1`, the relative growth is inactive: 1.16.
Consider `CCCNC(=O)Nc1ccc2c(c1)C(=O)N(C)C[C@@H](OC)[C@H](C)CN(C(=O)C1CCOCC1)[C@@H](C)CO2`, for which the relative growth was inactive: 0.956.
In the case of `COc1ccc(CN(C)C[C@@H]2Oc3ccc(NS(C)(=O)=O)cc3CC(=O)N([C@H](C)CO)C[C@H]2C)cc1`, the relative growth is inactive: 0.977.
With `Cc1ccccc1NC(=N)N=C(N)N`, the relative growth is inactive: 1.02.
`O=C(CN1CCN(S(=O)(=O)c2ccc(F)c(Cl)c2)CC1)N1CCNC1=O`: the relative growth is inactive: 1.01.
For the compound `Cc1noc(C)c1S(=O)(=O)Nc1cccc2c1O[C@H](CN(C)Cc1ccc(C(=O)O)cc1)[C@@H](C)CN([C@H](C)CO)C2=O`, the relative growth was inactive: 0.971.
On to `COc1ccc(NC(=O)Nc2ccc3c(c2)C(=O)N([C@H](C)CO)C[C@H](C)[C@@H](CN(C)C(=O)Nc2ccccc2)OCCCC[C@@H](C)O3)cc1`, for which the relative growth was inactive: 1.02.
`C[C@@H]1CCCCO[C@H](CN(C)S(=O)(=O)c2cccs2)[C@H](C)CN([C@@H](C)CO)C(=O)c2cc(NC(=O)c3ccccc3)ccc2O1`: the relative growth is inactive: 1.03.
As for `COc1ccc(C#Cc2cnc3c(c2)C(=O)N([C@H](C)CO)C[C@H](C)[C@H](CN(C)C(=O)NC(C)C)O3)cc1OC`, the figure is inactive: 1.
As for `C[C@@H]1CN([C@@H](C)CO)C(=O)c2cc(NC(=O)Cc3cn(C)c4ccccc34)ccc2O[C@@H]1CN(C)Cc1ccc(C(=O)Nc2ccccc2N)cc1`, the relative growth is inactive: 0.972.
As for `CC(=O)N[C@@H]1C[C@H](O)[C@@H](O)CCC(=O)N[C@H](c2ccccc2)COC1=O`, the figure is inactive: 0.987; as for `CC[C@@H](C)c1ccc(NC(=O)c2cc3ccccc3o2)cc1`, inactive: 1.08.
As to `Cc1ccc(S(=O)(=O)N(C)C[C@H]2OCCCC[C@H](C)Oc3ccc(NC(=O)NC4CCCCC4)cc3C(=O)N([C@H](C)CO)C[C@H]2C)cc1`, the relative growth was inactive: 1.
Consider `C[C@H]1CCCCO[C@@H](CN(C)S(=O)(=O)c2cccs2)[C@@H](C)CN([C@@H](C)CO)C(=O)c2cc(NC(=O)Nc3ccc(C(F)(F)F)cc3)ccc2O1`, for which the relative growth was inactive: 0.999.
With `C[C@@H]1CCCCO[C@@H](CN(C)C(=O)Nc2ccccc2)[C@@H](C)CN([C@H](C)CO)C(=O)c2cc(NC(=O)c3ccccc3)ccc2O1`, the relative growth is inactive: 0.989.
Turning to `CC(C)C[C@@H]1NC(=O)[C@H]2C[C@@H](C(=O)NCCCC[N+](C)(C)C)[C@@H](c3cccc(OCCO)c3)N2C1=O`, the relative growth was inactive: 0.993.
`C[C@H](CO)N1C[C@H](C)[C@H](CN(C)Cc2ccncc2)OCCCC[C@H](C)Oc2ccc(NC(=O)c3ccccc3)cc2C1=O`: the relative growth is inactive: 0.991.
As to `C[C@@H]1CN([C@@H](C)CO)C(=O)c2cc(NC(=O)Nc3ccccc3)ccc2O[C@@H](C)CCCCO[C@H]1CN(C)C(=O)CCC(F)(F)F`, the relative growth was inactive: 0.994.
Consider `CN(C)c1ccc([C@@H](CN)N2CCc3ccccc3C2)cc1`, for which the relative growth was inactive: 0.966.
With `C[C@H]1CN([C@@H](C)CO)C(=O)c2cccc(NC(=O)c3ccc(-c4nccs4)cc3)c2O[C@@H]1CN(C)S(C)(=O)=O`, the relative growth is inactive: 1.
Take `C[C@@H]1CN([C@H](C)CO)C(=O)c2cc(NC(=O)Cn3cnnn3)ccc2O[C@@H]1CN(C)C(=O)Nc1ccc2c(c1)OCO2`: the relative growth is inactive: 1.02.
On to `C[C@H]1CN([C@@H](C)CO)C(=O)Cc2cc(NC(=O)CCCCCC(=O)Nc3ccccc3N)ccc2O[C@@H]1CN(C)S(C)(=O)=O`, for which the relative growth is inactive: 1.02.
As to `C[C@@H]1CN([C@H](C)CO)C(=O)Cc2cc(NC(=O)NC3CCCCC3)ccc2O[C@H]1CN(C)S(C)(=O)=O`, the relative growth is inactive: 1.
As for `C[C@H]1CN([C@@H](C)CO)S(=O)(=O)c2ccc(Br)cc2O[C@@H]1CN(C)C(=O)c1cccnc1`, the relative growth is inactive: 0.972.
Take `O=C(C[C@H]1CC[C@@H]2[C@H](COC[C@@H](O)CN2C(=O)C2CC2)O1)NCc1ccncc1`: the relative growth is inactive: 0.983.
As to `C[C@H](CO)N1C[C@H](C)[C@@H](CN(C)S(=O)(=O)c2ccccc2)OCCCC[C@H](C)Oc2ccc(NC(=O)c3ccccc3)cc2C1=O`, the relative growth is inactive: 1.02.
As for `C[C@@H]1CN([C@@H](C)CO)C(=O)c2cc(NC(=O)C3CCCCC3)ccc2O[C@@H](C)CCCCO[C@H]1CN(C)S(=O)(=O)c1ccc(Cl)cc1`, the relative growth was inactive: 1.04.
As for `COc1ccccc1NC(=O)N(C)C[C@H]1Oc2cc(Br)ccc2S(=O)(=O)N([C@@H](C)CO)C[C@@H]1C`, the relative growth was inactive: 0.996.
As for `COc1cccc(OC)c1C(=O)NN`, the relative growth is inactive: 0.975.
As for `CO[C@@H]1CN(C)C(=O)c2ccc(NS(C)(=O)=O)cc2OC[C@H](C)N(C(=O)c2ccc3c(c2)OCO3)C[C@@H]1C`, the relative growth was inactive: 1.02.
On to `C[C@@H]1CN([C@@H](C)CO)C(=O)Cc2cc(NC(=O)Nc3ccc(F)cc3)ccc2O[C@H]1CN(C)Cc1ccc(-c2ccccc2)cc1`, for which the relative growth is inactive: 1.06.
